# Reference: paper PMC4336329 (PLoS ONE, 2015)
# Out of some 310,000 compounds screened, about 2,200 (0.71%) showed an effect of 50% or more. Effects have a minus sign here. The list shows a part of the results.
# Target: human ether-à-go-go-related gene (hERG) potassium channel (human, UniProt Q12809)
# Assay: primary screen, population patch clamp on CHO cells stably expressing hERG
# human ether-à-go-go-related gene (hERG) potassium channel, sequence (Q12809 whole entry, looked up): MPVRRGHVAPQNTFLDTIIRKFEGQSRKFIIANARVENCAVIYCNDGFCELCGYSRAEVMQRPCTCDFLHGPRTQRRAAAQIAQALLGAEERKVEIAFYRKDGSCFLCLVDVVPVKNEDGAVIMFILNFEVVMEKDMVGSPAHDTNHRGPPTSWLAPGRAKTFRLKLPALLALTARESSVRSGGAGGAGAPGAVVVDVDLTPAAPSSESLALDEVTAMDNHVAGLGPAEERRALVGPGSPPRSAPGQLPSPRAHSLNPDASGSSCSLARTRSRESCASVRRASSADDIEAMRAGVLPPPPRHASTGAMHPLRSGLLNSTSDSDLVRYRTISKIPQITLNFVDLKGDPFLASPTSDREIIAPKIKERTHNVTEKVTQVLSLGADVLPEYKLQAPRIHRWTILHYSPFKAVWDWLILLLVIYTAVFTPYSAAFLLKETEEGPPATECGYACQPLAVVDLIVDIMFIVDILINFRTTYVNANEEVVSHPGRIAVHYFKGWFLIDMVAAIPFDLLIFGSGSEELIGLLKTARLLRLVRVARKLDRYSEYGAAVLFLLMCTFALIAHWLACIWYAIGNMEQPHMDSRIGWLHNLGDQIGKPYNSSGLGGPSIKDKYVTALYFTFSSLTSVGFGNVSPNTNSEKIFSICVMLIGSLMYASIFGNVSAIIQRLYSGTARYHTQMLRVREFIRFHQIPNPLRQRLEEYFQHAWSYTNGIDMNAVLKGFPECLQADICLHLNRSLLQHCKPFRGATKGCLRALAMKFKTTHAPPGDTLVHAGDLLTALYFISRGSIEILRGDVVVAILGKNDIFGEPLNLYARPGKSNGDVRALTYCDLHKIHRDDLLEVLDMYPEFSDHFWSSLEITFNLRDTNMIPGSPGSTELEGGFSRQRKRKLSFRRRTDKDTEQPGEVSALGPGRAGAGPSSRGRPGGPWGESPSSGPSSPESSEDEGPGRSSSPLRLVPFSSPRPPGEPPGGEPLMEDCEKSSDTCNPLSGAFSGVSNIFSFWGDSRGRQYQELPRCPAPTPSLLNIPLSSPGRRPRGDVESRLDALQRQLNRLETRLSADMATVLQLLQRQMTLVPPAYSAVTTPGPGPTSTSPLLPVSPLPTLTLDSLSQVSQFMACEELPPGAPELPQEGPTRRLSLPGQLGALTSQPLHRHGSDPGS
row,Compound,"hERG current change (%, negative = inhibition) at 1uM"
1,O=C(O)C1Cc2ccccc2CN1C(=O)COc1ccc(Cl)cc1 (centres unmarked),3.22%
2,O=C(CN1CCN(S(=O)(=O)c2cc(Cl)ccc2Cl)CC1)c1ccc(O)c(O)c1,22.5%
3,COc1cc(/C=N/NC(=O)CC2(C)OCCCO2)ccc1OCc1ccccc1,11.7%
4,CCCOc1ccc2c(CC)cc(=O)oc2c1C,12.3%
5,CCCn1c(SCC(=O)NCc2ccc(Cl)cc2)n[nH]c1=O,12.1%
6,CCSc1nnc(C)n1-c1ccc(C(=O)O)cc1,9.56%
7,Cc1ccc(Cl)cc1N1CCN(C(=O)c2noc(C)c2[N+](=O)[O-])CC1,10.6%
8,CCCCCn1c(=O)c(C(=O)Nc2ncccc2C)c(O)c2ccccc21,12.3%
9,Cc1ccc2nc(-c3ccc(N)cc3)sc2c1,13.6%
10,CN1CCCCCC1=Nc1ccccc1C#N.O=C(O)C(=O)O,14.4%
11,Cc1cccc(OCC(O)Cn2c(=N)n(CCN3CCOCC3)c3ccccc32)c1.Cl (centres unmarked),-8.29%
12,COC(=O)Nc1ccc(S(=O)(=O)N2CCCCC2)cc1,-0.965%
13,Cc1cc(C(=O)Nc2ccc(S(=O)(=O)N3CCOCC3)cc2)c(C)o1,9.36%
14,CN1CCOC(=O)/C1=N/Nc1cc(Cl)ccc1Cl,7.79%
15,Cc1ccc2nc(N/C(=N/S(=O)(=O)c3ccc(F)cc3F)c3ccccc3)sc2c1,15.5%
16,C/C(CC(=O)Nc1ccccn1)=N\NC(=O)c1ccc([N+](=O)[O-])cc1Cl,7.02%
17,O=C(O)c1ccc(CS(=O)(=O)c2ccc(Br)cc2)cc1,13.9%
18,Cc1cc(Br)cc(/C=N/NC(=O)c2ccc3c(c2)OCO3)c1O,11.4%
19,O=C1NC(c2cccc([N+](=O)[O-])c2)Oc2ccccc21 (centres unmarked),12.6%
20,O=C(CSc1nnc(-c2ccccc2)o1)NC1CCCCC1,-3.22%
21,CC1CCN(C(=O)Cn2nnc(-c3ccc(N)cc3)n2)CC1,16.9%
22,CCCn1cc(S(=O)(=O)c2ccc(C)cc2)c(=O)c2cc(OCC)ccc21,-5.33%

row,Compound,"hERG current change (%, negative = inhibition) at 1uM"
1,Nn1c(SCC(=O)NC2CCS(=O)(=O)C2)nc2scc(-c3ccccc3)c2c1=O (centres unmarked),7.57%
2,CCOc1cc(/C=C(\C#N)C(=O)Nc2cccc(C(=O)O)c2)ccc1OCc1ccc(Br)cc1,12.5%
3,CCN(CC)CCCNC(=O)c1oc2ccc(S(=O)(=O)N3CC(C)CC(C)C3)cc2c1C (centres unmarked),6.83%
4,Cn1c(NN)nc2sc3c(c2c1=O)CCC3,1.05%
5,O=C(CN(CC(=O)N1CCOCC1)S(=O)(=O)c1ccc(Br)s1)N1CCOCC1,12.5%
6,Cc1ccc(/C=N/NC(=O)Cn2nccc2C)o1,1.27%
7,CCC(COC)NCc1cn(-c2ccc(F)cc2F)nc1-c1ccccc1C (centres unmarked),3.79%
8,C[C@]12CC[C@@H]3c4ccc(O)cc4[C@@H](O)C[C@H]3[C@@H]1CC[C@@H]2O,15%
9,COc1ccc(Nc2cc(C(=O)NCCCN3CCOCC3)c3ccccc3n2)c(OC)c1,-2.29%
10,COCCN1CC(C(=O)NCCc2nc(C)c(C)s2)CCC1=O (centres unmarked),20.5%
11,C=CCN(CC=C)C(=O)c1ccc(OC2CCN(S(=O)(=O)N(C)C)CC2)cc1,2.36%
12,O=C(N/N=C/c1sc(=O)n(-c2ccccc2)c1Cl)c1ccncc1,12.9%
13,O=C(NCC1CCCO1)C1CCN(C2CCN(C(=O)CC3CCCC3)CC2)CC1 (centres unmarked),9.16%
14,O=[N+]([O-])c1cc(C(F)(F)F)cc([N+](=O)[O-])c1NCCNC(=S)Nc1ccc(Cl)c(Cl)c1,5.85%
15,Cc1cc(NC(=O)c2ccco2)sc1C,4.07%
16,O=C(NCCCN1CCN(Cc2ccccc2)CC1)C1CCN(S(=O)(=O)N2CCCC2)CC1,6.3%
17,CCN1C(=O)C(C(=O)c2ccccc2)SC1=S (centres unmarked),11.7%
18,Cc1ccc(S(=O)(=O)N2[C@@H](c3cccc(Cl)c3)C(C(=O)O)=CC[C@H]2c2ccc(C(C)C)cc2)cc1,5.85%
19,O=C(CSc1nnc(-c2ccco2)c(-c2ccco2)n1)c1ccccc1,14.2%
20,Cc1ccn2c(=O)c(C(=O)NCCCN3CCCCC3C)c(O)nc2c1 (centres unmarked),18.4%
21,BrC(=C\c1ccccc1)/C=N/N1CCN(Cc2ccccc2)CC1,13.8%
22,O=C(NCCS(=O)(=O)NCCc1ccccc1)c1ccc2c(c1)OCO2,7.91%
